# From the supplement of paper PMC11417369
# This is one part of the list.
# Test system: PfHDP1 homeodomain (GST-tagged)
# Assay: gcPBM binding intensity (ln(normalized median fluorescence intensity)); higher = stronger DNA binding
# In short: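 The highest Masliner-normalised natural-log median intensity across replicate spots of either probe orientation is reported as binding intensity. GST-tagged P. falciparum DNA-binding domains expressed in E. coli were applied for 1 h to an Agilent 4 × 180k array of primer-extended double-stranded 36-bp intergenic genomic probes plus negative controls, and bound protein was detected with Alexa488 anti-GST antibody and scanned at 488 nm.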
row,Sequence,gcPBM binding intensity (ln)
1,AAATTTATATTCATTTGTACGTAATTTAAATTATAC [XGTACX_site5870],6.77
2,TATTTAACACCTTATACACACTTTCTTCCTTTTTTA [CACACA_site4590],7.12
3,TATACATATGAAAATACACACATACATACCTATATA [CACACA_site6888],6.75
4,TAATTGTACGCCAATACACACAGAATTATAATGTAG [CACACA_site6201],6.86
5,AAAAAAAAAAAAAACACACACACACCCATACAAAAT [CACACA_site1446],6.83
6,ATGCACTCATTGTGCACACGCATATTACGAAAAGAA [CACACA_site2638],10.8
7,TATATATATATGTGTATACACACCTGATAAAGGTAT [CACACA_site2653],8.96
8,AAGATTTGAAAAAATACACACAATAAAAAAATAAAA [CACACA_site3281],6.76
9,AATAAATAAAAAACATGTACAAATATAATATAGCAT [XGTACX_site6429],7.06
10,TTTATTTTTTCCAAGTCACACATGTTTTGATATATT [CACACA_site4946],6.73
11,TACTGAAATAATTATTTAAACGTTTTTATATGTATT [CACACA_negctrl_site487],6.73
12,GTATATATGTATGTATGTACGTATATAGTTATGTAT [XGTACX_site6769],6.69
13,ATAAAAAAATTAAATACATGCACATATACACATACA [TGCATGCA_site129],8.6
14,TCTTGAATAACAAAAAAATGTGCCAACAAAATAAAT [XGTACX_negctrl_site172],6.67
15,TTTGTAAAACTATATTGTACTTTTATATATCTACAA [XGTACX_site5507],6.38
16,ACAACTCGGAAGGTTTGTACTTAAAGTATAATTAAG [XGTACX_site737],6.29
17,TATATACATGCATATACACACATATATTTATTTATA [CACACA_site6327],6.83
18,ATACAACGATATATATATATACAAATACATATTTAT [CACACA_negctrl_site268],6.6
19,GATTTTTTTTTGTGGACACACAGAAATAAATTTATA [CACACA_site327],6.09
20,CACATACAGATATATACACACAAATATATATACTCA [CACACA_site4591],6.66
21,AAAAAAAATGGATGATCACACACTTCATAAAAATTG [CACACA_site2213],6.14
22,AATATATTTTTTCACTGTACTTTTATTATATATACA [XGTACX_site8312],7
23,ATAATTTTTTGATTTGCATGTAATAAATATATGATA [TGCATGCA_site384],6.53

row,Sequence,gcPBM binding intensity (ln)
1,TAAATAGATGTTTTATGTACGTATAAATAAAAAAAA [XGTACX_site3412],6.29
2,ATTAAAAATATAGTCACACATACACCCATATATATT [CACACA_site5394],6.63
3,TTTTTTTAAAGACATGCATGTAATATTTAAATCATT [TGCATGCA_site495],6.44
4,AGGATACACAGACACACACACATATATATATATATA [CACACA_site907],9.23
5,ATGGTAAGTATTTTATGTACATATATATTTATATAA [XGTACX_site4003],6.39
6,ACATATATATAAATATATATATATATATATATATAT [CACACA_negctrl_site874],9.38
7,AAAAAAAAAAAAAAAAGTACTAATTGAATATTAAAC [XGTACX_site3383],6.53
8,TACACCCATAGACACACACACACGCATAAAAAAAAA [CACACA_site8428],6.85
9,TAATAAAGGTGTAATACACACTATAAAAAGGAATAT [CACACA_site4756],7.28
10,AAAAAACAAAAAATTACACACATATATAAATATATT [CACACA_site2317],6.04
11,ATGTGTATATATTATTGTACATATATATATATATAT [XGTACX_site4627],9.24
12,ACACATATATAAATATGTACATATATATATATACAT [XGTACX_site1595],6.4
13,TAATTAAATAAAAAAACACACACATATATACATATA [CACACA_site9141],6.78
14,TCTATTAATTAATATACACACATTAGATATAAATAT [CACACA_site7241],6.7
15,TTTTTCAAATTTAATACACACACAAGTATATATTTA [CACACA_site9307],6.55
16,TTTTTCTTTTTACATACACACAAAAAAATAAAATAT [CACACA_site581],6.67
17,TGGTAATTTCTTTGATAAAAATTAATATGTATAAAT [XGTACX_negctrl_site152],6.2
18,AAATTAATATTATGTGCATGCACAAAGAGGAACGAC [TGCATGCA_site754],11.8
19,AATATTTGTTAAAGAGGTACACCATTTGGTAGGGAA [XGTACX_site2165],6.74
20,ATTATTTAAATGGATGCACACATGCATTAAATAAAA [CACACA_site5831],8.28
21,AAAAAAAAAAATATAACACACAACAAAAAAATATAT [CACACA_site1753],6.89
22,ATAATATGAAAACACACACACACACTAGAAAAAAAA [CACACA_site5153],6.86
23,TATTTTAACATTAGGTGTACATACAAAAATAAAAAT [XGTACX_site8577],6.75

row,Sequence,gcPBM binding intensity (ln)
1,ACAAGTTAAAATATTACACACATATAAATATATATA [CACACA_site3132],6.56
2,TTTTATTTACACAGTGGTACTATTAAAAATTAATGA [XGTACX_site6737],6.72
3,ATAAGGTTACAACAAACACACAAAGGAATATACTCA [CACACA_site6108],6.74
4,ATTTCATATTATGTAACACACAACAAGATAATCAAA [CACACA_site1960],6.39
5,TATATATAAAGGTGTACACATATATATATATCTGTA [CACACA_site5311],6.48
6,TTTTTTAACCTTTTATGTACACAATATTTAACATTT [XGTACX_site1170],7.31
7,ACTTACACAGTTGATGGTACACTTTTATGATTTTGT [XGTACX_site3205],6.88
8,AAGATTTTCCTTGATAGTACACTTATGAAAATTTGT [XGTACX_site3047],6.29
9,AATATCTTAGTGGATACACACATATAAATGTGGATT [CACACA_site485],6.16
10,ATATATTACGACTTCTGTACATAATATATAAAAGAA [XGTACX_site2353],6.66
11,AAAGTAAAAAATCATAGTACACATTTAAATATATAT [XGTACX_site2323],6.73
12,TTTTTTAAATTATGTAGTACGATTCATTTTTTATAA [XGTACX_site1101],5.98
13,GGTATATATTTATAATGTACATATTCATATATATAA [XGTACX_site3291],6.23
14,TAATATATCAAATGAAGTACTCACATATACATAATA [XGTACX_site6051],6.46
15,ATATAATATATATATTGTACATATATTTATAAGCAT [XGTACX_site3726],6.5
16,TATATATATATATATTGTACATTTACCAAATTGTGT [XGTACX_site5791],9.27
17,AATGTGCTCGCTATTACACACTCATTGGGATAAACT [CACACA_site7043],7.85
18,TTTAATAATAATACTAGTACACATTCTTTATTATTT [XGTACX_site2671],7.01
19,TATATAAATAAATATACACACATATATAAATATACA [CACACA_site2982],6.42
20,TTTTTTTTTTTTTGCACACTTAAATTTGGAGTGTAG [CACACA_site2345],8.98
21,TAAATTTATAGACACACACACATATAAATAAATATA [CACACA_site6530],7.12
22,TGAATTAAGATTTATTGTACATAATTTATACCATAT [XGTACX_site7034],6.33
23,TTACAACATGAAAATGTGCACATATATATATATATA,10.8

row,Sequence,gcPBM binding intensity (ln)
1,GAAATAAATATAATATATATATATATATATATATGT [TGCATGCA_negctrl_site216],7.14
2,AAAAATAAATATATATGTACACATATGTATACAATA [XGTACX_site4692],6.25
3,GGTATACACAGACATGCATGTAATTATATATAGGGA [TGCATGCA_site83],7.2
4,CATCATCTTTTAAAGGTGCATAATAATATTGTTAAT,9.22
5,GTCTATTATTTTTGAAGTACAAAAATTTTAGTTAAA [XGTACX_site4708],6.3
6,ATGTTCTTTAAAACCACACACCCCCCAACCCCCCTC [CACACA_site2373],8.36
7,TGAAATTCCATAAAATGTACATATTAGTTTAATTCA [XGTACX_site4031],5.95
8,TCGCCCTACAATTTGTTTATATATTAAATAAAATTT [CACACA_negctrl_site883],6.9
9,AATATATTTAATCATACACACATTTATGTACCTATA [CACACA_site1718],6.65
10,AAAGCTAATATTATATGTACTTATATATTTATATAT [XGTACX_site4474],6.23
11,ATATAAATCTACACCGCACACAAAAACAACAAATAT [CACACA_site2506],7.11
12,AAATAAATGAAACACACACACACAAAAAAAAAAAAC [CACACA_site2625],6.88
13,TATAATGTTAAATAATGTACATATTTTTTTTTTTTT [XGTACX_site4721],6.16
14,AAGGATGATACAACTTGTACATATTTGCTTAATATA [XGTACX_site764],6.59
15,ATATAAATATATTGCACACACAATTATTATTATTAT [CACACA_site7147],10.7
16,CATGTGCATATTAAATGTACATATATACATATATAC [XGTACX_site857],10.2
17,ATATAGGTATTTAATACACACAAAACTTTCATTCCA [CACACA_site7627],6.59
18,AACAAAATTGAAGGAACACACATACAGATATATATA [CACACA_site4264],6.89
19,ATAGAAAAAATATACACACACTTATTAAATAAAAAT [CACACA_site7540],6.73
20,TAATAATTAATTAATATAATATTTTTTCATAATTAT [XGTACX_negctrl_site602],6.12
